PubChem BioAssay AID686978 (National Center for Advancing Translational Sciences (NCATS), 2013)
“And” between values parts separate entries of the source, which are not always exact repeats. Identical values can stand only once. The whole screen tested about 420,000 compounds, of which about 64,000 (15%) were called active. The inconclusive results got no clear call from the source; some entries with a clear call stand among them for comparison. Calls come from the whole dose curve; as a rule, active = well fitted inhibition curve with a large enough effect; inconclusive = small, poorly fitted or top-dose-only effect; inactive = flat fitted curve, though single readings scatter. Potencies of inconclusive entries are doubtful fits and often do not repeat. Where a structure was tested more than once in an assay, its records may differ in their call.
% is set by controls: 0 for no effect and ±100 for the full control effect; potency is the fitted concentration of half-maximal effect; tags give direction and shape of the fitted curve.

Experiment: qHTS for Inhibitors of human tyrosyl-DNA phosphodiesterase 1 (TDP1): qHTS in cells in absence of CPT; note: nearly all actives have a fitted effect of over 55% in size
Details: DT40 Tdp1-/- hTDP1 cells, no CPT, ATP luminescence, 48 h; activity change, negative = growth inhibition: at 46.2 µM (top of the series) unless noted
Method in brief: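 A cellular qHTS used chicken DT40 cells lacking endogenous Tdp1 but carrying stably transfected human TDP1. Compounds were applied without camptothecin, and cell growth kinetics were judged by ATP-dependent luminescence after ≥48 hr.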
With O=c1c2ccccc2nc(-c2cccs2)n1-c1ccccc1 the Potency was active: 23.1 µM.
With CCOC(=O)C(NS(=O)(=O)c1ccc(C)cc1)(C(F)(F)F)P(=O)(OCC(C)C)OCC(C)C (centres undefined) the Potency was inconclusive: 29.1 µM [inhibitor, single point].
With Cc1ccc(-n2c(O)c(/C=N/N3CCCCCC3)c(=O)[nH]c2=O)cc1C the Potency was “inactive”.
For C[C@]12N[C@@H](Cc3ccccc31)c1ccccc12, the Potency was “inactive”.
In the case of COc1ccc(CCn2c(NN=C3CCCC3)nc3c2c(=O)[nH]c(=O)n3C)cc1, the Potency is reported as inconclusive: 29.1 µM [inhibitor, single point].
With CCOP(=S)(OCC)SCn1c(=O)oc2cc(Cl)ccc21 the Potency was inconclusive: 20.6 µM [inhibitor, single point].
In the case of CN1CCC(O)(c2ccc(F)cc2)C(C(=O)c2ccc(F)cc2)C1 (centres undefined), the Potency is reported as inconclusive: 23.7 µM [inhibitor, single point].
For CCOC(=O)c1ccc(N2C(=O)c3n[nH]c(-c4cccs4)c3C2c2ccc(C(C)(C)C)cc2)cc1 (centres undefined), the Potency was active: 6.51 µM.
In the case of O=C(CCN1CCCCC1)NCC(=O)Nc1ccc(Br)cc1C(=O)c1ccccc1, the Potency is reported as inconclusive: 25.9 µM [inhibitor, single point].
With COc1ccccc1OP(=O)(Nc1cccnc1)Oc1ccccc1OC the Potency was active: 11.6 µM.
In the case of O=C(Cc1ccccc1)c1ccccn1, the Potency is reported as inconclusive: 18.4 µM [inhibitor, single point].
With Clc1ccc(Sc2oc(/C=N/n3cnnc3)cc2Br)cc1 the Potency was inconclusive: 20.6 µM [inhibitor, single point].
For c1ccc2sc(C3(NCC4CC4)CCCCC3)cc2c1, the Potency was active: 13 µM.
In the case of O=C(COc1ccccc1[N+](=O)[O-])N1CCN(CCc2ccncc2)CC1, the Potency is reported as inconclusive: 5.17 µM [inhibitor, partial curve].
With CS(=O)(=O)Nc1ccc(Cc2noc(-c3ccc4[nH]cc(CCN)c4c3)n2)cc1 the Potency was inconclusive: 20.6 µM [inhibitor, partial curve] and the activity change, negative = growth inhibition was inconclusive: -32.2% [inhibitor].
For COc1cc(/C=C/c2nc3ccccc3c(=O)n2-c2ccc(O)cc2)ccc1O, the Potency was inconclusive: 13 µM [inhibitor, partial curve].
With S=C(NCCc1ccccc1)N1Cc2cc(N3CCOCC3)ccc2-n2nncc2C1 the Potency was inconclusive: 20.6 µM [inhibitor, single point].
With COC(=O)C1=C(c2ccc3ccccc3c2)C[C@@H]2CC[C@H]1N2C(=O)N1CCC(O)CC1 the Potency was inconclusive: 18.4 µM [inhibitor, single point].
In the case of CN(C)S(=O)(=O)c1ccc(C(=O)NNc2nc(-c3ccccc3)c3cc(Br)ccc3n2)cc1, the Potency is reported as inconclusive: 29.1 µM [inhibitor, single point].
For COc1cccc(-n2c(SCC(=O)c3ccc(Cl)cc3)nc3c([nH]c4ccccc43)c2=O)c1, the Potency was active: 4.11 µM.
With O=S(=O)(c1ccc(Cl)cc1)N1CCCCC1c1cccnc1 (centres undefined) the Potency was inconclusive: 20.6 µM [inhibitor, single point].
For COc1ccc(NC2Oc3cc4c(cc3C(c3cc(OC)c(OC)c(OC)c3)C2C)OCO4)cc1 (centres undefined), the Potency was active: 4.11 µM.
In the case of CC(C)CN1Cc2cc(N3CCCCC3)ccc2-n2nncc2C1, the Potency is reported as inconclusive: 20.6 µM [inhibitor, single point].
For COc1cc(C2(C#N)CCN(C)CC2)cc(OC)c1OC, the Potency was “inactive”.
For O=C(C1CCCCC1)N1CCC(c2nc3c(nnn3Cc3c(F)cccc3Cl)c(=O)[nH]2)CC1, the Potency was inconclusive: 20.6 µM [inhibitor, single point].
With CC[C@@H](C(=O)[C@@H](C)[C@@H](O)[C@H](C)[C@@H]1O[C@@H]([C@@H](CC)C(=O)O)CC[C@@H]1C)[C@H]1O[C@]2(C=C[C@@H](O)[C@]3(CC[C@@](C)([C@H]4CC[C@](O)(CC)[C@H](C)O4)O3)O2)[C@H](C)C[C@@H]1C the Potency was active: 731 nM and active: 517 nM.
In the case of Cc1cccc(CN2CCc3nc(N4CCN(c5ccccn5)CC4)ncc3C2)c1, the Potency is reported as active: 10.3 µM.
In the case of Cc1ccc(-c2nc3ncccc3o2)cc1NC(=O)c1cccc(OCC(C)C)c1, the Potency is reported as inconclusive: 16.4 µM [inhibitor, partial curve].
With CCCCn1c(O)c(C(CC)=NCc2cc(OC)cc(OC)c2)c(=O)[nH]c1=O the Potency was active: 23.1 µM.
For O=C(Nc1ccc(Br)cc1)c1nn(C23CC4CC(CC(C4)C2)C3)cc1Br, the Potency was active: 14.6 µM.
With COc1ccc(C(c2nnnn2-c2c(C)cccc2C)N2CCC3(CC2)C(=O)NCN3c2ccccc2)cc1 (centres undefined) the Potency was active: 20.6 µM.
For Cn1c(O)c(/C=N/N2CCOCC2)c(=O)n(C)c1=S, the Potency was inconclusive: 29.1 µM [inhibitor, single point].
In the case of CCOP(=O)(OCC)C1(O)C(=O)Nc2ccccc21 (centres undefined), the Potency is reported as “inactive”.
With CCOc1cc(CNCCc2cccc(F)c2)ccc1OC the Potency was inconclusive: 29.1 µM [inhibitor, single point].
In the case of CN(C)C(=O)Oc1ccc2oc(=O)cc(-c3cc4ccccc4o3)c2c1, the Potency is reported as “inactive”.
With COc1ccc(C2=NCC(=O)N(CC(=O)NCc3ccco3)c3sc4c(c32)CCCC4)cc1OC the Potency was inconclusive: 29.1 µM [inhibitor, single point].
In the case of CCC(=NCc1cccnc1)c1c(O)n(Cc2ccccc2)c(=O)[nH]c1=O, the Potency is reported as “inactive”.
For COCCCn1c(N)c(C(=O)NCCC(C)C)c2nc3ccccc3nc21, the Potency was inconclusive: 23.1 µM [inhibitor, single point].
In the case of C=CCC1=C(C)C(OC(=O)C2C(C=C(C)C)C2(C)C)CC1=O (centres undefined), the Potency is reported as active: 24.3 µM.
With C(#CCN1CCCC1)CN1CCCC1 the Potency was “inactive”.
With N=Cc1c(O)n(-c2ccc(C34CC5CC(CC(C5)C3)C4)cc2)c(=O)[nH]c1=O the Potency was “inactive”.
For Cc1ccc(OC(=O)N(C)C[C@H]2OCc3cnnn3CCCC(=O)N([C@H](C)CO)C[C@@H]2C)cc1, the Potency was inconclusive: 0.461 µM [inhibitor, full curve, poor fit].
In the case of CCC(C)(C)n1nnnc1CN1CCC(n2c(C)nc3cc(C(F)(F)F)ccc32)CC1, the Potency is reported as inconclusive: 6.51 µM [inhibitor, full curve, poor fit].
With Cc1ccc(N2CCN(C(=O)C3CCC(CNS(=O)(=O)c4ccc(Br)s4)CC3)CC2C)cc1 (centres undefined) the Potency was active: 4.61 µM.
For CC(C)[C@H]1C(=O)N2CCC[C@H]2[C@]2(O)O[C@](NC(=O)[C@@H]3C=C4c5cccc6[nH]cc(c56)C[C@H]4N(C)C3)(C(C)C)C(=O)N12, the Potency was active: 5.8 µM.
In the case of CC(NC(=O)N1CC1(C)C)c1ccccc1 (centres undefined), the Potency is reported as “inactive”.
For N#CC(C#N)=Cc1ccc(O)c(O)c1, the Potency was “inactive and active: 18.8 µM”.
In the case of CCCCCCC(=O)N/N=C/c1c(O)n(CCc2ccccc2)c(=O)[nH]c1=O, the Potency is reported as active: 18.4 µM.
With Cc1nc2cc(F)ccc2n1C1CCN(Cc2nnnn2CCc2ccccc2)CC1 the Potency was inconclusive: 8.2 µM [inhibitor, partial curve, poor fit].
With NC(=Nc1ccccc1)Nc1ccccc1 the Potency was inconclusive: 30.6 µM [inhibitor, single point].
For CCOc1cc(C2NCc3ccccc3-n3cccc32)ccc1O (centres undefined), the Potency was inconclusive: 18.4 µM [inhibitor, single point].
In the case of O=C1NC(=O)C(=CN2CCc3ccccc32)C(=O)N1, the Potency is reported as “inactive”.
In the case of CNc1ccc2nc3ccccc3[n+](C)c2c1, the Potency is reported as active: 0.731 µM.
In the case of COc1ccc(C)cc1NC(=O)c1cccn(Cc2ccccc2Cl)c1=O, the Potency is reported as “inactive”.
In the case of COC(=O)C1=C(c2cc3ccccc3s2)C[C@@H]2CC[C@H]1N2C(=O)NCCS(C)=O (some centres undefined), the Potency is reported as “inactive”.
With c1ccc(/N=C2\N=C(Nc3ccccn3)c3ccccc32)nc1 the Potency was active: 0.146 µM.
In the case of COc1ccc(C2SCC(=O)Nc3c2c(=O)[nH]n3C2CCCCCC2)cc1OC (centres undefined), the Potency is reported as inconclusive: 16.4 µM [inhibitor, partial curve, poor fit].
For C[C@H](NC(=O)[C@@H](N)Cc1ccc(O)cc1)C(=O)N[C@@H](Cc1ccccc1)C(=O)NCC(=O)N[C@@H](Cc1ccc(O)cc1)C(=O)N1CCC[C@H]1C(=O)N[C@@H](CO)C(N)=O, the activity change, negative = growth inhibition was inactive: 3.31% [at 4.12 µM].
For COc1ccc(CN2CCN(C(=O)COc3ccc4ccccc4c3)CC2)c(OC)c1, the Potency was inconclusive: 20.6 µM [inhibitor, single point].
In the case of Cc1ccsc1-c1nc(CSCC(=O)N2CCC3(CC2)OCCO3)c(C)o1, the Potency is reported as active: 16.4 µM.
In the case of O=C(CCCOc1ccc(Cl)cc1Cl)Nc1cc(S(=O)(=O)N2CCOCC2)ccc1N1CCOCC1, the Potency is reported as inconclusive: 29.1 µM [inhibitor, single point].
In the case of Cc1ccc(/C=C/C(=O)C2C(=O)c3ccccc3C2=O)cc1, the Potency is reported as inconclusive: 18.4 µM [inhibitor, single point].
In the case of Cc1cccc(N2CCN(C(=O)CCS(=O)(=O)c3ccc4c(c3)oc(=O)n4C)CC2)c1C, the Potency is reported as inconclusive: 25.9 µM [inhibitor, single point] and inconclusive: 29.1 µM [inhibitor, single point].
With CCCCNC(C)(C)[P+](=O)O the Potency was “inactive”.
In the case of CCOc1ccc(-c2cc(C)n3nc(C(=O)Nc4ccc(C)c(C)c4)cc3n2)cc1, the Potency is reported as inconclusive: 14.6 µM [inhibitor, partial curve, poor fit].
For Cc1ccc(-n2c(/C=C/c3cc(Br)cs3)nc3ccccc3c2=O)cc1C, the Potency was inconclusive: 23.1 µM [inhibitor, single point].
With CN1CCC(OC(=O)c2cccc(F)c2)CC1 the Potency was “inactive”.
With O=C(Nc1ccccc1)N1CCCC2(CCN(C(=O)Oc3ccccc3)CC2)C1 the Potency was inconclusive: 18.4 µM [inhibitor, single point].
